Whole data set: some 3,600 compounds, median “viability index relative to DMSO control” near 0.81, cut for the lowest 2% near 0.13. The list shows a part of the results.
System: Plasmodium falciparum NF54 stage V gametocytes
Experiment: viability index relative to DMSO control (fraction); higher = less gametocyte killing
Conditions: 1.25 µM, incubation time: 72 h
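Note: 384-well serum-free SaLSSA: MitoTracker Red CMXRos staining with saponin lysis, high-content imaging, treated-well particle count divided by plate-mean count of DMSO wells.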

Row | SMILES | viability index
1 | OC1=C2C(=Nc3ccccc3SC2c2ccc(Br)cc2)c2ccccc21 (stereo not given) | 0.799
2 | COc1ccc(Nc2c3c(nc4ccc(NC(=O)c5cc(=O)c6ccccc6o5)cc24)CCCC3)cc1OC | 0.913
3 | O=C(Nc1ccc(-c2ccc(Cl)cc2)cc1)c1cccs1 | 0.595
4 | CCn1c(SCc2ccc(Cl)cc2Cl)nc2sc3c(c2c1=O)CCN(C)C3 | 1.12
5 | COc1ccc(C(=O)C(C#N)=CNC2CCN(Cc3ccccc3)CC2)cc1 | 0.867
6 | CCCC(=O)N1CCN(c2nc(Cc3ccccc3)c3c(c2C#N)CC(C)(C)OC3)CC1 | 0.568
7 | COC(=O)C1=C(C)NC(=Cc2cc(C)n(-c3cc(C)ccc3OC)c2C)C1=O | 0.954
8 | O=C(CCl)NCCOc1ccc(Cl)cc1Cl | 0.939
9 | O=c1c2c3c(sc2ncn1Cc1cccc(Cl)c1)CC(N1CCCCC1)CC3 (stereo not given) | 0.808
10 | COc1ccc(Nc2nc(N3CCCC3)c3ccccc3n2)cc1 | 0.74
11 | OC(Cn1nnc2ccccc21)Cn1c2ccc(Br)cc2c2cc(Br)ccc21 (stereo not given) | 0.902
12 | CC(C)(C)c1cc(CCC(=O)Nc2c3c(nc4ccccc24)N(c2cccc(Cl)c2)CC3)cc(C(C)(C)C)c1O | 0.947
13 | COC(=O)C1=CNC=C(C(=O)OC)C1c1ccc(Cl)c([N+](=O)[O-])c1 | 0.712
14 | COc1ccc(OCC(O)CNC2CCN(CC(O)COc3ccc(Cl)c(Cl)c3)CC2)cc1 (stereo not given) | 0.56
15 | COc1cc(OC)cc(C(=O)N2CCN(c3ccccn3)CC2)c1 | 0.541
16 | CCOc1ccc(Nc2nc(N)c3ccccc3n2)cc1 | 1.08
17 | Cc1cc(N2CCN(C)CC2)nc2ccc(NC(=O)Nc3ccccc3Cl)cc12 | 0.863
18 | CCCCOc1ccc(NC2=C(N3CCCCC3)C(=O)c3ccccc3C2=O)cc1 | 0.166
19 | CC(=O)Nc1c(NCc2ccccc2)c2ccccc2sc1=O | 0.596
20 | CN(C)CCN1CCN(c2cccc(-c3cccc4cccnc34)n2)CC1 | 0.685
21 | CCOC(=O)C1=C(C)NC2=C(C(=O)CC(c3ccc(OC)c(OC)c3)C2)C1c1ccccc1F (stereo not given) | 0.467
22 | CCOC(=O)C1=C(C)NC2=C(C(=O)C(C(=O)OCC)C(c3ccccc3OC)C2)C1c1ccc([N+](=O)[O-])cc1 (stereo not given) | 0.193
23 | CC1CN(C(=O)c2sc3cccc(F)c3c2Cl)CC(C)O1 (stereo not given) | 0.731

Row | SMILES | viability index
24 | C=CCSc1nc2sc3c(c2c(=O)n1-c1ccccc1)CCN(C)C3 | 0.931
25 | Cc1ccc(NC(=S)NCCO)cc1C | 0.846
26 | COc1ccc(C2C(C(=O)OC3CCCC3)=C(C)NC3=C2C(=O)CC(C)(C)C3)cc1Br (stereo not given) | 0.642
27 | Cc1ccccc1N=c1oc2ccc3ccccc3c2cc1-c1nc2ccccc2[nH]1 | 0.815
28 | CCn1c(SCC(=O)Nc2cccc(C)c2)nnc1-c1ccccc1 | 1.06
29 | CCOC(=O)C1=C(CC)NC2=C(C(=O)CC(C)(C)C2)C1c1ccccc1F (stereo not given) | 0.743
30 | COc1ccc2c(c1)OC(O)(C(F)(F)C(F)(F)F)CC2=O (stereo not given) | 0.6
31 | COc1cc(C(=O)C=CNc2ccc(N(C)C)cc2)cc(OC)c1OC | 0.826
32 | Cc1cccc(NC(c2cccc(Cl)c2)c2ccc3cccnc3c2O)n1 (stereo not given) | 1.03
33 | COc1ccc(C2CC(=O)C3=C(C2)NC(C)=C(C(=O)OC(C)C)C3c2ccc(F)cc2)cc1OC (stereo not given) | 0.344
34 | Cc1nc(NC(=N)N)nc2c(C)cccc12 | 0.795
35 | Cc1cc(CNC(=O)CC2C(=O)NCCN2Cc2ccccc2C(F)(F)F)nn1C (stereo not given) | 0.615
36 | c1cc2cc3c(cc2c2cc4c(cc12)C[N+]1(CCCC1)C4)C[N+]1(CCCC1)C3 | 0.598
37 | O=C(Nc1ccc(-c2nc3ccccc3[nH]2)cc1)c1ccc(-c2cccc([N+](=O)[O-])c2)o1 | 0.751
38 | COc1ccc(OC)c(NC(=O)CSc2nc(NCc3ccc(Cl)cc3)c3ccccc3n2)c1 | 0.921
39 | COc1cccc(Cn2c3cc(C)sc3c3cnn(C)c(=O)c32)c1 | 0.536
40 | CCC(=O)NC(c1cccc([N+](=O)[O-])c1)c1ccc2cccnc2c1O (stereo not given) | 1.12
41 | COc1ccc(Cn2c(C)nc3cc(NC(=O)Nc4ccccc4)c(C)nc32)cc1 | 0.792
42 | CCCCNC(=O)C1CCC(CN(Cc2c(Cl)cccc2Cl)S(=O)(=O)c2ccc(Br)cc2)CC1 (stereo not given) | 0.884
43 | CCC(CC)C(=O)Nc1c2c(nn1-c1cccc(Cl)c1)CS(=O)C2 (stereo not given) | 0.802
44 | COc1ccc(OC)c(-c2ccc(O)c(CN3CCCC(C)C3)c2)c1 (stereo not given) | 0.644
45 | CN=C1S/C(=C\c2ccc(OCC(=O)O)c(OC)c2)C(=O)N1C | 0.588
46 | CN(c1ccc(Br)cc1)S(=O)(=O)c1ccc2[nH]cc(C(=O)N3CCN(c4ccccc4)CC3)c(=O)c2c1 | 1.37

Row | SMILES | viability index
47 | CC(=O)N(C1=C(N2CCCCC2)C(=O)c2ccccc2C1=O)c1ccccc1C | 0.31
48 | Cc1ccccc1N=Nc1ccc(NC(=O)c2ccco2)c(C)c1 | 0.761
49 | CCOC(=O)C1=C(C)N=c2sc(=Cc3ccccc3OC(C)=O)c(=O)n2C1c1ccc(OC)cc1 (stereo not given) | 0.747
50 | N#Cc1c(-c2ccccc2)cc(N2CCN(Cc3ccc(Cl)cc3)CC2)n2c1nc1ccccc12 | 0.575
51 | Cc1ccc(C)c(NC(=O)c2c(-c3c(Cl)cccc3Cl)noc2C)c1 | 0.861
52 | CC(=O)N(C1=C(N2CCOCC2)C(=O)c2ccccc2C1=O)c1ccc(C(C)C)c(C)c1 | 0.509
53 | COC(OC)C(C)=NNC(N)=S | 0.112
54 | Cn1c(=O)c(Cl)c2c3c(c(Cl)ccc31)C(=O)c1ccccc1-2 | 0.0761
55 | CCOC(=O)C1=C(c2ccccc2)N=c2sc(=Cc3cccnc3)c(=O)n2C1c1c(OC)ccc2ccccc12 (stereo not given) | 0.853
56 | COc1ccc(CCN2C(=O)CC(C(=O)Nc3cccc(Cl)c3)SC2=Nc2ccccc2)cc1OC (stereo not given) | 1.08
57 | COc1cc2nc(N3CCN(c4nc(N)c5cc(OC)c(OC)cc5n4)CC3)nc(N)c2cc1OC | 0.0192
58 | Cc1ccccc1CN1CCN(CC=Cc2ccccc2)CCC1=O | 0.981
59 | Cc1ccc(NC(=O)COc2ccc(Cl)cc2Cl)nc1 | 0.976
60 | CCCCCOC(=O)C1=C(C)NC2=C(C(=O)CCC2)C1c1ccc(OC)c(Br)c1 (stereo not given) | 0.638
61 | Cc1ccc(NC(=O)c2cc3ccccc3oc2=O)nc1 | 1.12
62 | Oc1ccc(-c2nc(-c3ccccc3)c(-c3ccc4oc5ccc(-c6[nH]c(-c7ccc(O)cc7)nc6-c6ccccc6)cc5c4c3)[nH]2)cc1 | 0.914
63 | CCN(CC)S(=O)(=O)c1ccc(-c2csc(=Nc3cccc4ccccc34)n2C)cc1 | 1.05
64 | O=C1CSc2nc3ccccc3n21 | 1.12
65 | COc1ccc(C2CC(=O)C3=C(C2)NC(C)=C(C(=O)OC2CCCC2)C3c2cccc(C)c2)cc1OC (stereo not given) | 0.811
66 | O=c1c2ccccc2[nH]c2ccc(F)cc12 | 1.13
67 | CCOC(=O)c1cccc(NC(=O)CC2C(=O)N(c3ccccc3)C(=O)N2C2CCCC2)c1 (stereo not given) | 0.341
68 | O=C1OC(c2ccccc2)=NC1=C(Cl)Cl | 1.1
69 | c1ccc2c(NC3CCCC3)nc(Nc3ccc4c(c3)OCO4)nc2c1 | 0.632

Row | SMILES | viability index
70 | CC1=C(C(=O)OCCOc2ccccc2)C(c2cccc([N+](=O)[O-])c2)C2=C(CCCC2=O)N1 (stereo not given) | 1.22
71 | O=C(NN=Cc1ccc(O)cc1O)c1ccncc1 | 0.931
72 | COc1cc(Br)c(CCNC(=O)Cc2cc(OC)c(OC)cc2Br)cc1OC | 0.805
73 | CC1CCCCN1CC(=O)N1CCN(C(=O)CN2CCCCC2C)CC1 (stereo not given) | 1.03
74 | CC(=O)N(C1=C(N2CCCC2)C(=O)c2ccccc2C1=O)c1ccc(F)cc1 | 1
75 | O=C(NN=Cc1ccncc1)c1cc(-c2cccc([N+](=O)[O-])c2)n[nH]1 | 0.734
76 | O=S(=O)(Oc1ccc2ccccc2c1Cc1c(OS(=O)(=O)c2ccccc2)ccc2ccccc12)c1ccccc1 | 0.682
77 | N=c1n(CCN2CCCCC2)c2ccccc2n1CC(O)c1ccc(Cl)c(Cl)c1 (stereo not given) | 0.506
78 | CCN1CCN(c2cc(C)c3cc(NC(=O)C=Cc4ccc(OC)cc4)ccc3n2)CC1 | 0.767
79 | CCCc1c(CC)c(=N)c2ccccc2n1C | 0.785
80 | CN(C)c1ccc(C2N(C)c3ccccc3N2C)cc1 | 0.764
81 | O=C1C(=O)N(Cc2ccccc2[N+](=O)[O-])c2ccccc21 | 0.74
82 | Cc1cc(Cl)c(S(=O)(=O)N2CCCC2)cc1OCC(=O)NC1CCCCC1 | 1.02
83 | CCOC(=O)CCS(=O)(=O)c1ccc(Br)cc1 | 0.875
84 | COc1ccc(C(=O)C[n+]2ccc3c(c2)nc(-c2ccc(OC)cc2OC)n3C)cc1 | 0.864
85 | CCCCN1Cc2ccc(C(=O)NCCN3CCOCC3)cc2N=C1c1ccc(OC)cc1 | 0.708
86 | Cc1ccc(Sc2c(C)nn(C(=O)c3cccnc3)c2C)cc1 | 1.1
87 | CCCc1cc2c(=O)c(-c3ccc4c(c3)OCO4)c(CC)oc2cc1OC(C)C | 0.521
88 | Cc1ccc(-c2cc(N3CCCC3CO)n3nccc3n2)cc1 (stereo not given) | 0.685
89 | CCOC(=O)c1c(NC(=O)CSc2nc3c(c(=O)n(C)c(=O)n3C)n2C(C)C)sc2c1CCCC2 | 0.735
90 | COc1ccc(-n2c(CNc3cc(C(F)(F)F)ccc3Cl)nnc2SCc2ccccc2Cl)cc1 | 0.696
